Residue numbers refer to the chain shown, from its start. The list shows a part of the results.
T1: RBFOX1 RRM RbFoxmut (Fox-RRM*) (Homo sapiens, UniProt Q9NWB1 109-208, R118D;E147R;N151S;E152T)
T1 sequence: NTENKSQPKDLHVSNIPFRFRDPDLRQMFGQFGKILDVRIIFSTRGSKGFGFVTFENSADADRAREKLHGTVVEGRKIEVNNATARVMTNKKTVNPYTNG

B1: ACCAUAG (DNA:RNA)
RNA: GGGAGACCGGAAUUCAGAUUGUCCACCAUAGUUAAAUCCCGUCGUAGCCACCA
DNA 1: CAATCTGAATTCCGGTCTCCC
DNA 2: TGGTGGCTACGACGGGATT
B2: CCUGACC (DNA:RNA)
RNA: B1 RNA with A25C, C27U, A28G, U29A, A30C, G31C
DNA 1: CAATCTGAATTCCGGTCTCCC
DNA 2: TGGTGGCTACGACGGGATT
B3: UGCUGCG (DNA:RNA)
RNA: B1 RNA with A25U, C26G, A28U, U29G, A30C
DNA 1: CAATCTGAATTCCGGTCTCCC
DNA 2: TGGTGGCTACGACGGGATT
B4: UCCUUUC (DNA:RNA)
RNA: B1 RNA with A25U, A28U, A30U, G31C
DNA 1: CAATCTGAATTCCGGTCTCCC
DNA 2: TGGTGGCTACGACGGGATT
B5: AACUCGU (DNA:RNA)
RNA: B1 RNA with C26A, A28U, U29C, A30G, G31U
DNA 1: CAATCTGAATTCCGGTCTCCC
DNA 2: TGGTGGCTACGACGGGATT
B6: GAGUCGA (DNA:RNA)
RNA: GGGAGACCGGAAUUCAGAUUGUCCGAGUCGAUUAAAUCCCGUCGUAGCCACCA
DNA 1: CAATCTGAATTCCGGTCTCCC
DNA 2: TGGTGGCTACGACGGGATT
B7: UAAGCGA (DNA:RNA)
RNA: B6 RNA with G25U, G27A, U28G
DNA 1: CAATCTGAATTCCGGTCTCCC
DNA 2: TGGTGGCTACGACGGGATT
B8: GUGACUC (DNA:RNA)
RNA: B6 RNA with A26U, U28A, G30U, A31C
DNA 1: CAATCTGAATTCCGGTCTCCC
DNA 2: TGGTGGCTACGACGGGATT
B9: CAUAGCC (DNA:RNA)
RNA: B1 RNA with A25C, C26A, C27U, U29G, A30C, G31C
DNA 1: CAATCTGAATTCCGGTCTCCC
DNA 2: TGGTGGCTACGACGGGATT
B10: ACAUACG (DNA:RNA)
RNA: B1 RNA with C27A, A28U, U29A, A30C
DNA 1: CAATCTGAATTCCGGTCTCCC
DNA 2: TGGTGGCTACGACGGGATT
B11: CGCAGGU (DNA:RNA)
RNA: B1 RNA with A25C, C26G, U29G, A30G, G31U
DNA 1: CAATCTGAATTCCGGTCTCCC
DNA 2: TGGTGGCTACGACGGGATT
B12: GAGACGA (DNA:RNA)
RNA: B6 RNA with U28A
DNA 1: CAATCTGAATTCCGGTCTCCC
DNA 2: TGGTGGCTACGACGGGATT
B13: AGAGAUG (DNA:RNA)
RNA: B1 RNA with C26G, C27A, A28G, U29A, A30U
DNA 1: CAATCTGAATTCCGGTCTCCC
DNA 2: TGGTGGCTACGACGGGATT
B14: GUAAUUG (DNA:RNA)
RNA: B1 RNA with A25G, C26U, C27A, A30U
DNA 1: CAATCTGAATTCCGGTCTCCC
DNA 2: TGGTGGCTACGACGGGATT
B15: CUUAAAG (DNA:RNA)
RNA: B1 RNA with A25C, C26U, C27U, U29A
DNA 1: CAATCTGAATTCCGGTCTCCC
DNA 2: TGGTGGCTACGACGGGATT
B16: CGGCGAC (DNA:RNA)
RNA: B1 RNA with A25C, C26G, C27G, A28C, U29G, G31C
DNA 1: CAATCTGAATTCCGGTCTCCC
DNA 2: TGGTGGCTACGACGGGATT
B17: UUAAGAC (DNA:RNA)
RNA: B1 RNA with A25U, C26U, C27A, U29G, G31C
DNA 1: CAATCTGAATTCCGGTCTCCC
DNA 2: TGGTGGCTACGACGGGATT
B18: UAUGACG (DNA:RNA)
RNA: B1 RNA with A25U, C26A, C27U, A28G, U29A, A30C
DNA 1: CAATCTGAATTCCGGTCTCCC
DNA 2: TGGTGGCTACGACGGGATT
B19: GUAAUCC (DNA:RNA)
RNA: B1 RNA with A25G, C26U, C27A, A30C, G31C
DNA 1: CAATCTGAATTCCGGTCTCCC
DNA 2: TGGTGGCTACGACGGGATT
B20: UGAUCCG (DNA:RNA)
RNA: B6 RNA with G25U, A26G, G27A, G30C, A31G
DNA 1: CAATCTGAATTCCGGTCTCCC
DNA 2: TGGTGGCTACGACGGGATT
B21: CCUUCCA (DNA:RNA)
RNA: B6 RNA with G25C, A26C, G27U, G30C
DNA 1: CAATCTGAATTCCGGTCTCCC
DNA 2: TGGTGGCTACGACGGGATT
B22: ACACCGA (DNA:RNA)
RNA: B6 RNA with G25A, A26C, G27A, U28C
DNA 1: CAATCTGAATTCCGGTCTCCC
DNA 2: TGGTGGCTACGACGGGATT
B23: AUAGAGG (DNA:RNA)
RNA: B1 RNA with C26U, C27A, A28G, U29A, A30G
DNA 1: CAATCTGAATTCCGGTCTCCC
DNA 2: TGGTGGCTACGACGGGATT
B24: CGCGUGG (DNA:RNA)
RNA: B1 RNA with A25C, C26G, A28G, A30G
DNA 1: CAATCTGAATTCCGGTCTCCC
DNA 2: TGGTGGCTACGACGGGATT
B25: AUGGAUG (DNA:RNA)
RNA: B1 RNA with C26U, C27G, A28G, U29A, A30U
DNA 1: CAATCTGAATTCCGGTCTCCC
DNA 2: TGGTGGCTACGACGGGATT
B26: UUAGGAU (DNA:RNA)
RNA: B1 RNA with A25U, C26U, C27A, A28G, U29G, G31U
DNA 1: CAATCTGAATTCCGGTCTCCC
DNA 2: TGGTGGCTACGACGGGATT
B27: CCGGUUG (DNA:RNA)
RNA: B1 RNA with A25C, C27G, A28G, A30U
DNA 1: CAATCTGAATTCCGGTCTCCC
DNA 2: TGGTGGCTACGACGGGATT
B28: AUCCUCC (DNA:RNA)
RNA: B1 RNA with C26U, A28C, A30C, G31C
DNA 1: CAATCTGAATTCCGGTCTCCC
DNA 2: TGGTGGCTACGACGGGATT
B29: UAACUAG (DNA:RNA)
RNA: B1 RNA with A25U, C26A, C27A, A28C
DNA 1: CAATCTGAATTCCGGTCTCCC
DNA 2: TGGTGGCTACGACGGGATT
B30: GUCGUAG (DNA:RNA)
RNA: B1 RNA with A25G, C26U, A28G
DNA 1: CAATCTGAATTCCGGTCTCCC
DNA 2: TGGTGGCTACGACGGGATT
B31: CUAUAAU (DNA:RNA)
RNA: B1 RNA with A25C, C26U, C27A, A28U, U29A, G31U
DNA 1: CAATCTGAATTCCGGTCTCCC
DNA 2: TGGTGGCTACGACGGGATT

target: T1, RBFOX1 RRM RbFoxmut (Fox-RRM*); experiment: EMSA; HiTS-Eq, 1 nM pool, 10 min; buffer printed only for the single-RNA assays: 10 mM Tris pH 7.5, 150 mM NaCl, 3.4 mM EDTA, 0.001% NP-40, 30 C; conditions: tags: His6 N-terminal (pET28a); label: 5' 32P
Procedure, shortened: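 Purified RbFox RRM (wild type or mutant) was equilibrated for 10 min in 50 µL with 1 nM of a 5′-radiolabelled pool of RNA with 7 randomized nucleotides, its flanks annealed to DNA oligonucleotides, across increasing protein concentrations. Free RNA was separated by 8% native PAGE, excised, reverse-transcribed, PCR-barcoded and sequenced on an Illumina HiSeq 2500. Relative association constants came from read-count changes of each variant against the control reaction, normalised to the cognate motif.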

Binder	binding signal
B1	0.128 KA relative to UGCAUGU
B2	0.0903 KA relative to UGCAUGU
B3	0.193 KA relative to UGCAUGU
B4	0.061 KA relative to UGCAUGU
B5	0.122 KA relative to UGCAUGU
B6	0.104 KA relative to UGCAUGU
B7	0.0635 KA relative to UGCAUGU
B8	0.101 KA relative to UGCAUGU
B9	0.181 KA relative to UGCAUGU
B10	0.111 KA relative to UGCAUGU
B11	0.129 KA relative to UGCAUGU
B12	0.0516 KA relative to UGCAUGU
B13	0.159 KA relative to UGCAUGU
B14	0.116 KA relative to UGCAUGU
B15	0.0894 KA relative to UGCAUGU
B16	0.0855 KA relative to UGCAUGU

Binder	binding signal
B17	0.0787 KA relative to UGCAUGU
B18	0.0814 KA relative to UGCAUGU
B19	0.0644 KA relative to UGCAUGU
B20	0.0824 KA relative to UGCAUGU
B21	0.0644 KA relative to UGCAUGU
B22	0.0798 KA relative to UGCAUGU
B23	0.099 KA relative to UGCAUGU
B24	0.0774 KA relative to UGCAUGU
B25	0.64 KA relative to UGCAUGU
B26	0.0802 KA relative to UGCAUGU
B27	0.144 KA relative to UGCAUGU
B28	0.0649 KA relative to UGCAUGU
B29	0.0916 KA relative to UGCAUGU
B30	0.145 KA relative to UGCAUGU
B31	0.0681 KA relative to UGCAUGU

From PMC9911399, “Two distinct binding modes provide the RNA-binding protein RbFox with extraordinary sequence specificity”
